From the supplement of paper PMC10037445
The full ranking holds about 2,900 compounds; the median of “NF-kB SEAP reporter activity, fold change vs agonist alone” is about 0.99, and the highest 2% start at about 2.6. This is one part of the list.

Columns and labels:
RAW-Dual [1] = assay: NF-kB SEAP reporter activity, fold change vs agonist alone; higher = enhanced NF-kB activity
How it was run: (§1)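 Library stock was pin-tooled at 50 nL into 384-well plates of RAW-Dual macrophages (50,000 cells/well, DMEM), followed 1 h later by a PRR agonist, and the cells were kept at 37 °C, 5% CO2. Supernatant collected after 20 hours was read for IRF by QuantiLuc luminescence and for NF-κB by QuantiBlue absorbance at 620 nm. Reporter activity is fold change over agonist-alone wells, and a well counted as cytotoxic when its IncuCyte confluency was below 70% of agonist controls in both mask sets.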

RAW-Dual [2] = assay: NF-kB SEAP reporter activity, fold change vs agonist alone; cytotoxicity flag (confluency mask): not cytotoxic; higher = enhanced NF-kB activity
How it was run: as §1

RAW-Dual [3] = assay: NF-kB SEAP reporter activity, fold change vs agonist alone; cytotoxicity flag (confluency mask): cytotoxic (confluency <70% of control); higher = enhanced NF-kB activity
How it was run: as §1

[4] = library stock concentration (final ~1000-fold dilution): 10 mM, cytotoxicity flag (confluency mask): not cytotoxic, agonist: MPLA (TLR4) […]
[5] = agonist: ODN 1826 (TLR9) 0.5 ug/mL
[6] = agonist: Pam2CSK4 (TLR2/6) 0.1 ug/mL
[7] = agonist: Pam3CSK4 (TLR2/1) 0.1 ug/mL
[8] = library stock concentration (final ~1000-fold dilution): 10 mM, cytotoxicity flag (confluency mask): not cytotoxic, agonist: Imiquimod (TLR7) […]
[9] = library stock concentration (final ~1000-fold dilution): 10 mM, cytotoxicity flag (confluency mask): cytotoxic (confluency <70% of control), agonist: Imiquimod (TLR7) […]
[10] = library stock concentration (final ~1000-fold dilution): 10 mM, cytotoxicity flag (confluency mask): cytotoxic (confluency <70% of control), agonist: MPLA (TLR4) […]

CCCC(CCC)C(N)=O
NF-kB SEAP reporter activity (RAW-Dual [1]; [4]): 1.18

CCCC(CCC)C(N)=O (library stock concentration (final ~1000-fold dilution): 10 mM)
NF-kB SEAP reporter activity (RAW-Dual [2]; agonist: LPS (TLR4) 0.1 ug/mL): 1.11
NF-kB SEAP reporter activity (RAW-Dual [2]; [5]): 1
NF-kB SEAP reporter activity (RAW-Dual [2]; [6]): 1.16
NF-kB SEAP reporter activity (RAW-Dual [2]; [7]): 0.876

CC(NC(=O)Cc1cc(F)cc(F)c1)C(=O)NC(C(=O)OC(C)(C)C)c1ccccc1 (stereo unspecified) (library stock concentration (final ~1000-fold dilution): 10 mM)
NF-kB SEAP reporter activity (RAW-Dual [2]; agonist: LPS (TLR4) 0.1 ug/mL): 1.34
NF-kB SEAP reporter activity (RAW-Dual [2]; [5]): 1.29
NF-kB SEAP reporter activity (RAW-Dual [2]; [6]): 1
NF-kB SEAP reporter activity (RAW-Dual [2]; [7]): 0.878

CC(NC(=O)Cc1cc(F)cc(F)c1)C(=O)NC(C(=O)OC(C)(C)C)c1ccccc1 (stereo unspecified)
NF-kB SEAP reporter activity (RAW-Dual [1]; [8]): 1.14
NF-kB SEAP reporter activity (RAW-Dual [1]; [4]): 1.24

CC1CC2C3CCC4=CC(=O)C=CC4(C)C3(F)C(O)CC2(C)C1(O)C(=O)CO (stereo unspecified)
NF-kB SEAP reporter activity (RAW-Dual [1]; library stock concentration (final ~1000-fold dilution): 1 mM, cytotoxicity flag (confluency mask): not cytotoxic, agonist: Imiquimod (TLR7) […]): 1.18
NF-kB SEAP reporter activity (RAW-Dual [1]; library stock concentration (final ~1000-fold dilution): 1 mM, cytotoxicity flag (confluency mask): not cytotoxic, agonist: MPLA (TLR4) […]): 1.28

CC1CC2C3CCC4=CC(=O)C=CC4(C)C3(F)C(O)CC2(C)C1(O)C(=O)CO (stereo unspecified) (library stock concentration (final ~1000-fold dilution): 1 mM)
NF-kB SEAP reporter activity (RAW-Dual [2]; agonist: LPS (TLR4) 0.1 ug/mL): 1.07
NF-kB SEAP reporter activity (RAW-Dual [2]; [5]): 1.16
NF-kB SEAP reporter activity (RAW-Dual [2]; [6]): 1.5
NF-kB SEAP reporter activity (RAW-Dual [2]; [7]): 1.12

O=C(O)c1cc2ccccc2c(Cc2c(O)c(C(=O)O)cc3ccccc23)c1O.OCCOCCN1CCN(C(c2ccccc2)c2ccc(Cl)cc2)CC1
NF-kB SEAP reporter activity (RAW-Dual [1]; [8]): 1.24
NF-kB SEAP reporter activity (RAW-Dual [1]; [4]): 1.06

O=C(O)c1cc2ccccc2c(Cc2c(O)c(C(=O)O)cc3ccccc23)c1O.OCCOCCN1CCN(C(c2ccccc2)c2ccc(Cl)cc2)CC1 (library stock concentration (final ~1000-fold dilution): 10 mM)
NF-kB SEAP reporter activity (RAW-Dual [2]; agonist: LPS (TLR4) 0.1 ug/mL): 0.958
NF-kB SEAP reporter activity (RAW-Dual [2]; [5]): 0.716
NF-kB SEAP reporter activity (RAW-Dual [2]; [6]): 1.03
NF-kB SEAP reporter activity (RAW-Dual [2]; [7]): 0.704

O=C(O)CSc1nnc(Br)n1-c1ccc(C2CC2)c2ccccc12
NF-kB SEAP reporter activity (RAW-Dual [1]; [4]): 0.983

O=C(O)CSc1nnc(Br)n1-c1ccc(C2CC2)c2ccccc12 (library stock concentration (final ~1000-fold dilution): 10 mM)
NF-kB SEAP reporter activity (RAW-Dual [2]; agonist: LPS (TLR4) 0.1 ug/mL): 1.32
NF-kB SEAP reporter activity (RAW-Dual [2]; [5]): 1.01
NF-kB SEAP reporter activity (RAW-Dual [2]; [6]): 1.24
NF-kB SEAP reporter activity (RAW-Dual [2]; [7]): 1.18

O=C(NO)c1cnc(NC2(c3ccccc3)CC2)nc1
NF-kB SEAP reporter activity (RAW-Dual [1]; [9]): 1.46
NF-kB SEAP reporter activity (RAW-Dual [1]; [10]): 2.22

O=C(NO)c1cnc(NC2(c3ccccc3)CC2)nc1 (library stock concentration (final ~1000-fold dilution): 10 mM)
NF-kB SEAP reporter activity (RAW-Dual [3]; agonist: LPS (TLR4) 0.1 ug/mL): 2.94
NF-kB SEAP reporter activity (RAW-Dual [3]; [5]): 1.6
NF-kB SEAP reporter activity (RAW-Dual [3]; [6]): 0.654
NF-kB SEAP reporter activity (RAW-Dual [3]; [7]): 1.4

COCCOc1cc(F)c2c(Nc3ccc(NC(=O)Cn4cc(C(C)C)nn4)cc3)ncnc2c1
NF-kB SEAP reporter activity (RAW-Dual [1]; [8]): 1.14
NF-kB SEAP reporter activity (RAW-Dual [1]; [4]): 1.01

COCCOc1cc(F)c2c(Nc3ccc(NC(=O)Cn4cc(C(C)C)nn4)cc3)ncnc2c1 (library stock concentration (final ~1000-fold dilution): 10 mM)
NF-kB SEAP reporter activity (RAW-Dual [2]; agonist: LPS (TLR4) 0.1 ug/mL): 1.36
NF-kB SEAP reporter activity (RAW-Dual [2]; [5]): 0.989
NF-kB SEAP reporter activity (RAW-Dual [2]; [6]): 1.16
NF-kB SEAP reporter activity (RAW-Dual [2]; [7]): 1.24

CCN1CCN(Cc2ccc(Nc3ncc(F)c(-c4cc(F)c5nc(C)n(C(C)C)c5c4)n3)nc2)CC1.CS(=O)(=O)O
NF-kB SEAP reporter activity (RAW-Dual [1]; [8]): 1.42
NF-kB SEAP reporter activity (RAW-Dual [1]; [4]): 2.33

CCN1CCN(Cc2ccc(Nc3ncc(F)c(-c4cc(F)c5nc(C)n(C(C)C)c5c4)n3)nc2)CC1.CS(=O)(=O)O (library stock concentration (final ~1000-fold dilution): 10 mM)
NF-kB SEAP reporter activity (RAW-Dual [2]; agonist: LPS (TLR4) 0.1 ug/mL): 2.05
NF-kB SEAP reporter activity (RAW-Dual [2]; [5]): 0.215
NF-kB SEAP reporter activity (RAW-Dual [2]; [6]): 0.965
NF-kB SEAP reporter activity (RAW-Dual [2]; [7]): 1.38

CCc1ccc(OCc2ccccc2C(=O)Nc2ccc3nc(C)cc(N)c3c2)cc1.Cl
NF-kB SEAP reporter activity (RAW-Dual [1]; [9]): 0.265
NF-kB SEAP reporter activity (RAW-Dual [1]; [10]): 0.216

CCc1ccc(OCc2ccccc2C(=O)Nc2ccc3nc(C)cc(N)c3c2)cc1.Cl (library stock concentration (final ~1000-fold dilution): 10 mM)
NF-kB SEAP reporter activity (RAW-Dual [3]; agonist: LPS (TLR4) 0.1 ug/mL): 0.212
NF-kB SEAP reporter activity (RAW-Dual [3]; [5]): 0.198
NF-kB SEAP reporter activity (RAW-Dual [3]; [6]): 0.0939
NF-kB SEAP reporter activity (RAW-Dual [3]; [7]): 0.336

Cc1cc(=O)oc2c(C=O)c(O)ccc12
NF-kB SEAP reporter activity (RAW-Dual [1]; [8]): 0.796
NF-kB SEAP reporter activity (RAW-Dual [1]; [4]): 0.827

Cc1cc(=O)oc2c(C=O)c(O)ccc12 (library stock concentration (final ~1000-fold dilution): 10 mM)
NF-kB SEAP reporter activity (RAW-Dual [2]; agonist: LPS (TLR4) 0.1 ug/mL): 1.45
NF-kB SEAP reporter activity (RAW-Dual [2]; [5]): 0.766
NF-kB SEAP reporter activity (RAW-Dual [2]; [6]): 0.886
NF-kB SEAP reporter activity (RAW-Dual [2]; [7]): 0.753

CCN(CC)CCOC(=O)C(c1ccccc1)C1CCCCC1.Cl (stereo unspecified) (library stock concentration (final ~1000-fold dilution): 10 mM)
NF-kB SEAP reporter activity (RAW-Dual [3]; agonist: LPS (TLR4) 0.1 ug/mL): 0.908
NF-kB SEAP reporter activity (RAW-Dual [3]; [5]): 0.742
NF-kB SEAP reporter activity (RAW-Dual [3]; [6]): 0.899
NF-kB SEAP reporter activity (RAW-Dual [3]; [7]): 0.593

CCN(CC)CCOC(=O)C(c1ccccc1)C1CCCCC1.Cl (stereo unspecified)
NF-kB SEAP reporter activity (RAW-Dual [1]; [9]): 1.33
NF-kB SEAP reporter activity (RAW-Dual [1]; [10]): 1.03

Oc1ccc(OC2CCCCO2)cc1 (stereo unspecified) (library stock concentration (final ~1000-fold dilution): 10 mM)
NF-kB SEAP reporter activity (RAW-Dual [2]; agonist: LPS (TLR4) 0.1 ug/mL): 1.31
NF-kB SEAP reporter activity (RAW-Dual [2]; [5]): 1.32
NF-kB SEAP reporter activity (RAW-Dual [2]; [6]): 1.27
NF-kB SEAP reporter activity (RAW-Dual [2]; [7]): 1.33

Oc1ccc(OC2CCCCO2)cc1 (stereo unspecified)
NF-kB SEAP reporter activity (RAW-Dual [1]; [8]): 1.25
NF-kB SEAP reporter activity (RAW-Dual [1]; [4]): 1.23

O=c1cc(-c2ccc(O)c(O)c2)oc2cc(OC3OC(CO)C(O)C(O)C3O)cc(O)c12 (stereo unspecified)
NF-kB SEAP reporter activity (RAW-Dual [1]; [8]): 1.08
NF-kB SEAP reporter activity (RAW-Dual [1]; [4]): 1.03

O=c1cc(-c2ccc(O)c(O)c2)oc2cc(OC3OC(CO)C(O)C(O)C3O)cc(O)c12 (stereo unspecified) (library stock concentration (final ~1000-fold dilution): 10 mM)
NF-kB SEAP reporter activity (RAW-Dual [2]; agonist: LPS (TLR4) 0.1 ug/mL): 1.4
NF-kB SEAP reporter activity (RAW-Dual [2]; [5]): 1.01
NF-kB SEAP reporter activity (RAW-Dual [2]; [6]): 1.11
NF-kB SEAP reporter activity (RAW-Dual [2]; [7]): 1.26
